Read-outs that look alike come from different tables or passages of the source.

The test concerns tet-ON GFP stable cells (HN33). The settings on record: for transgene expression, 6 vs 12-hour pulse exposure: total 48 hours; for GFP transgene activation, pulse dosing vs continuous exposure: 16 hours washout.

For `C[C@H]1c2ccc(C(C)(C)C)c(O)c2C(O)=C2C(=O)[C@]3(O)C(O)=C(C(N)=O)C(=O)[C@@H](N(C)C)[C@@H]3[C@@H](O)[C@@H]21` [9-TB, 9-t-butyl doxycycline], the “transgene expression, 6 vs 12-hour pulse exposure” value is reported as “clear differences were observed” (0.25 μg/ml) and “equivalent levels of transgene expression” (2.5 μg/ml). Further, the “GFP transgene activation, pulse dosing vs continuous exposure” value (2.5 μg/ml, 12 hours pulse) is recorded as “dramatically increased expression levels”. Further, the “transgene (GFP) expression vs washout period length” value (2.5 μg/ml, 12 hours pulse, washout 0, 12, 24 hours) is on record as “Shorter chase periods were associated with lower levels of transgene expression”. In addition, the “GFP expression at high dose” value (10 μg/ml, continuous 40 hours) is listed as “Lower levels of GFP expression”. For the same compound, the “transgene induction, continuous dosing 0.25 vs 2.5 μg/ml” value (48-hours exposure, normoxic) is listed as “nearly equivalent transgene induction”. Moreover, the “GFP expression from the TetO promoter” value (continuous exposure 40 hours, 0.25-10 μg/ml, matched concentrations, relative to Dox, listed as 9TB) was “higher levels of GFP expression”.
In the case of `CC1c2cccc(O)c2C(=O)C2=C(O)C3(O)C(=O)C(C(N)=O)=C(O)C(N(C)C)C3C(O)C21` (stereo not drawn) [Dox, 4-[Dimethylamino]-1,4,4a,5,5a,6,11,12a-octahydro-3,5,10,12,12apentahydroxy-6-methyl-1,11-dioxo-2-naphthacenecarboxamide], the “GFP transgene activation, pulse dosing vs continuous exposure” value is given as “lowered GFP transgene activation” (2.5 μg/ml, 12 hours pulse) and “did not achieve acceptable transgene expression levels” (2.5 μg/ml, 12 hours pulse, listed as doxycycline).
